# Data reported in PubChem BioAssay AID1347417 (National Center for Advancing Translational Sciences (NCATS), 2020).
# Hit rate of the full screen: of about 120,000 compounds, about 5,300 (4.4%) were called active. The inconclusive results got no clear call from the source; some entries with a clear call stand among them for comparison. The call rests on the fitted dose curve; in most records, active means well fitted inhibition curve with a large enough effect; inconclusive means small, poorly fitted or top-dose-only effect; inactive means no such curve, though single readings can be large or run the other way. Where the call is inconclusive, the potency comes from a doubtful curve fit.
# Test: qHTS Primary assay for Inhibitors of Plasmodium falciparum Dd2 growth in vitro; further: nearly all actives have a fitted effect of over 65% in size;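 on activity, negative = inhibition: plate controls were DMSO vehicle for no effect and reference drug for full effect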
# Settings: P. falciparum Dd2 growth, SYBR Green, 72 h; activity, negative = inhibition: at 28.9 µM (top of the series) unless noted; series mostly up to 28.9 µM
# Outline: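 Readout: SYBR Green fluorescence, 485 nm excitation, 535 nm emission, after ~16 h lysis at 37C. Before that, Dd2-infected red cells (2.5% hematocrit) grew 72 h with compound, 29 uM top final concentration.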
# Potency means the concentration at half of the fitted maximal effect; tags describe the fitted curve by direction and shape.
SMILES,Potency,outcome,"activity, negative = inhibition"
CN(C(=O)C(C)(C)C)C1CCCc2ccccc21 (centres undefined),"inconclusive: 44.7 µM [inhibitor, partial curve, poor fit]",,
CC[C@H]1CN2CC[C@H]1C[C@@H]2CNC(=O)c1ccc(F)c(Cl)c1,,inactive [at 44.1 µM],
COc1ccc(-c2cc([C@H]3CN4CC[C@H]3C[C@@H]4CNC(=O)NC3CCCCC3)n(C)n2)cc1,"inconclusive: 0.891 µM [inhibitor, full curve, poor fit]",,
CCc1cccc(C)c1NC(=O)Cn1c(=O)n(-c2ccccc2)c(=O)c2c1cc(C)n2C,,inactive,
Cn1ncc(N2CCCC(CC(=O)NC3CC3)C2)cc1=O (centres undefined),,,inactive: 44.9%
CN(CC1CCOC1)C(=O)Nc1ccccc1C(F)(F)F (centres undefined),,,inactive: 19.2% [at 5.79 µM]
CN(C)Cc1cccc(-c2cc3c(ccn3Cc3cccnc3)c(C3=CCOCC3)n2)c1,"inconclusive: 3.98 µM [inhibitor, partial curve, poor fit]",,
Cc1ccc2[nH]c(=O)c(CN3CCCN(c4ccncc4)CC3)cc2c1,,,inactive: -8.82%
O=C(c1ccco1)N1CCC(Oc2ccccc2-c2nc(-c3ccccc3)no2)C1 (centres undefined),"inconclusive: 0.282 µM [inhibitor, full curve]",,
Cc1cc(NC(=O)c2ccc3c(c2)N(Cc2cccc(Cl)c2)C(=O)c2ccccc2S3=O)ccc1Br (centres undefined),active: 10 µM,,
Cc1ccc(S(=O)(=O)c2cn(Cc3ccccc3F)c3cc4c(cc3c2=O)OCO4)cc1,"inconclusive: 10 µM [inhibitor, single point]",,
O=C(Nc1ccc(Cl)nc1)c1c[nH]c2cccnc12,"inconclusive: 14.1 µM [inhibitor, single point]",,
O=S(=O)(c1ccccc1)N1CCC(N(Cc2cccnc2)C2CCOCC2)CC1,"inconclusive: 5.62 µM [inhibitor, partial curve, poor fit]",,
O=C(NC1CCCCC1)c1cc2n(n1)CC(c1ccc(Cl)cc1)OC2 (centres undefined),,,inactive: -23.8%
CCn1cc(S(=O)(=O)N2CCCOCCNC(=O)[C@@H]3CCC[C@@H]32)cn1,"inconclusive: 0.224 µM [inhibitor, full curve, poor fit]",,
COc1cc(Cl)c(C)cc1NC(=O)c1cc(CN2CCOCC2)on1,"inconclusive: 20 µM [inhibitor, partial curve, poor fit]",,
COc1ccccc1CNC[C@@H]1C=C(C)[C@H](Cc2nc3c(C)cccc3[nH]2)C[C@H]1C(C)C,"inconclusive: 0.708 µM [inhibitor, full curve, poor fit]",,
CCCCn1c2ccc(F)cc2c2nnc(SCCN3CCCCC3)nc21,"inconclusive: 5.01 µM [inhibitor, partial curve, poor fit]",,
CCCNC(=O)N1CCC(c2nc(CCOCC3CCOCC3)no2)C1 (centres undefined),,,inactive: 3.44%
CCn1ccc2sc(C)c(C(=O)NCCC(C)C)c2c1=O,"inconclusive: 1.78 µM [inhibitor, partial curve, poor fit]",,
Cc1ccc2nc(-c3ccc(Cl)c(NC(=O)c4cccnc4)c3)oc2c1,"inconclusive: 0.631 µM [inhibitor, full curve, poor fit]",,
Cc1ccccc1-c1[nH]nc2ncc(-c3ccccc3F)nc12,"inconclusive: 3.55 µM [inhibitor, full curve]",,

SMILES,Potency,outcome,"activity, negative = inhibition"
O=C(O)C[C@@H]1CCN(C(=O)Nc2cccc(C(F)(F)F)c2)C[C@@H]1CC1=NCCc2cc(F)ccc21,,,inactive: -13.7%
CC(=O)N1CCCc2cc(S(=O)(=O)N3CCCCC3)ccc21,,,inactive: 7.78%
COc1ccc(OC)c(NC(=O)Cn2cccc2-c2nc(-c3ccc(F)cc3)no2)c1,"inconclusive: 3.55 µM [inhibitor, full curve]",,
Cc1ccc(Cl)cc1N1CCN(C(=O)C2CCCN(S(=O)(=O)c3ccc(Br)s3)C2)CC1 (centres undefined),"inconclusive: 17.8 µM [inhibitor, single point]",,
CC1CCCCN1CCN(C)c1nc(-c2ccncc2)nc2c1cnn2C (centres undefined),"inconclusive: 17.8 µM [inhibitor, single point]",,
O=C(Nc1ccc([C@@H](O)[C@H]2COCC(=O)N2Cc2ccc(F)cc2)cc1)c1ccc2c(c1)OCO2,"inconclusive: 1.78 µM [inhibitor, full curve]",,
c1coc(CN[C@H]2CO[C@H]3[C@@H]2OC[C@@H]3n2nnnc2Oc2ccc(-n3cncn3)cc2)c1,,,inactive: 26.9%
Cc1ccc(-n2c(=O)c3cccnc3n2CC(=O)Nc2cccc(C)c2C)cc1,active: 3.55 µM,,
Cc1oc2c(c1C(=O)N1CCCC1)CN(Cc1ccc(F)cc1)CC2,"inconclusive: 11.2 µM [inhibitor, single point]",,
O=C(c1ccc(Cl)cc1)N1CCC2(CC1)CN(c1ccccc1)C(=O)c1ccccc1O2,,,inactive: -17.1%
COc1cccc(CCC(=O)N2Cc3ccccc3OC3(CCN(C)CC3)C2)c1,"inconclusive: 1 µM [inhibitor, partial curve, poor fit]",,
COc1cccc(-c2nnnn2[C@H]2CO[C@H]3[C@@H]2OC[C@@H]3NS(=O)(=O)c2ccccc2C#N)c1,"inconclusive: 0.631 µM [inhibitor, full curve, poor fit]",,
COc1ccc(CCNC(=O)CSc2ncc3c(n2)-c2cc(Cl)ccc2N(Cc2ccccc2)S3(=O)=O)cc1OC,"inconclusive: 17.8 µM [inhibitor, single point]",,
CCC(CC)c1nc(COC(=O)C2=CN(Cc3ccc(OC)cc3)S(=O)(=O)N=C2C)no1,"inconclusive: 12.6 µM [inhibitor, partial curve, poor fit]",,
C=CCNC(=O)[C@@H]1Cc2c[nH]c3cccc(c23)[C@H](CC(C)C)N1,"inconclusive: 12.6 µM [inhibitor, single point]",,
O=C1N[C@H](CC(=O)N2CCC(c3ccccc3)C2)C(=O)Nc2ccccc21 (some centres undefined),"inconclusive: 14.1 µM [inhibitor, single point]",,
Cc1ccc(C(=O)N2CC(c3nnc(C(C)C)o3)C3(CCOCC3)C2)cn1 (centres undefined),,,inactive: -3.16%
Cc1nn(-c2ccc(C(C)C)cc2)c(C)c1[C@@H]1C=C[C@@H](NCc2ccc(F)cc2)C1,active: 3.98 µM,,
Cc1ccc([C@H]2Nc3ccc(S(=O)(=O)Nc4cccc(Cl)c4C)cc3[C@H]3C=CC[C@H]32)cc1,"inconclusive: 11.2 µM [inhibitor, partial curve, poor fit]",,
CC(=O)Nc1ccc(CN2CCC3(COc4ncccc4[S+](=O)([O-])N3)C2)cc1 (centres undefined),,,inactive: 1.92%
CCCn1c(=O)n(-c2cc(Cl)c(OC)cc2OC)c(=O)c2c3c(sc21)CN(C(C)=O)CC3,"inconclusive: 7.94 µM [inhibitor, partial curve, poor fit]",,
O=C(Nc1cccc(Cl)c1)C1=NO[C@@H]2CN(c3ccccn3)C[C@H]12,,,inactive: -22.7% [at 44.1 µM]

SMILES,Potency,outcome,"activity, negative = inhibition"
O=C(Nc1nccs1)c1ccc2c(c1)OCCN(CCC(F)(F)F)C2,,,inactive: -7.37% [at 44.1 µM]
Cn1nc(C2CCCC2)cc1[C@H]1CN2CC[C@H]1C[C@@H]2CNS(=O)(=O)c1cccs1,"inconclusive: 3.55 µM [inhibitor, single point]",,
Cc1cccc(CC(C)NC(=O)c2ccc3nc(Cc4ccccc4F)oc3c2)n1 (centres undefined),"inconclusive: 12.6 µM [inhibitor, single point]",,
O=C(Cc1c[nH]c2ncc(-c3ccc(Oc4ccccc4)cc3)cc12)NCc1cccnc1,active: 8.91 µM,,
Cn1cccc1CN1CCC2(Cc3ccccc3NC2=O)C1 (centres undefined),"inconclusive: 10 µM [inhibitor, partial curve]",,
CCN1CCC(N2CCC3(CC2)NCCc2c3[nH]c3ccc(OC)cc23)CC1,"inconclusive: 10 µM [inhibitor, single point]",,
CN(Cc1cc2cc(F)ccc2[nH]1)C(=O)C1CCC(=O)N(C2CCCC2)C1 (centres undefined),,inactive,
CN1[C@@H](CCC(=O)Nc2ccccc2)CNC(=O)[C@@H]2[C@H]1CCN2Cc1cccc(OC(F)(F)F)c1,"inconclusive: 3.55 µM [inhibitor, full curve, poor fit]",,
O=c1c2oc3ccccc3c2n(Cc2cccc(F)c2)c(=O)n1Cc1ccco1,"inconclusive: 11.2 µM [inhibitor, single point]",,
CC(C)c1ccc2oc(-c3cc(NC(=O)c4cccs4)ccc3Cl)nc2c1,,inactive,
Cc1ccccc1N1CCN(S(=O)(=O)c2nnc(NC(=O)c3ccccc3)s2)CC1,,,inactive: -1.43%
COc1ccc(N2CC3CCC(C2)N3Cc2cccs2)cc1,,,inconclusive: -133% [inhibitor]
COc1ccc(S(=O)(=O)c2c(Nc3ccc(F)cc3)sc(C(=O)c3ccc(C)cc3C)c2N)cc1,"inconclusive: 7.94 µM [inhibitor, partial curve, poor fit]",,
CCOc1ccccc1CNC(=O)C1CCN(C2=NS(=O)(=O)C(c3ccc(C)c(C)c3)=C2C)CC1,"inconclusive: 17.8 µM [inhibitor, partial curve, poor fit]",,
COc1ccc(NC(=O)c2ccc3c(=O)n4nc(Nc5cc(C)ccc5C)sc4nc3c2)cc1,"inconclusive: 20 µM [inhibitor, single point]",,
O=C(NCc1cccnc1)c1c(OCC2CC2)cc(=O)n2c1CCCCC2,,,inactive: -10.1%
CCCN(C(=O)c1nn(-c2ccc(OC)c(Cl)c2)c(=O)c2c1c1ccccc1n2C)c1ccccc1F,,,inactive: 4.22%
COc1ccc(OC)c(NC(=O)Cn2cnc3sc(C)c(S(=O)(=O)N4CCN(c5ccccc5OC)CC4)c3c2=O)c1,active: 11.2 µM,,
O=C(c1ccc(OC2CCN(C(=O)c3cccc(F)c3)CC2)nc1)N1CCOCC1,,,inactive: 20.9%
Cc1cccc(C(=O)NCC(c2ccc3c(c2)OCO3)N2CCN(c3ccccc3F)CC2)c1 (centres undefined),"inconclusive: 12.6 µM [inhibitor, single point]",,
